Reference: the supplement of paper PMC3334620
The full ranking holds about 33,000 sequences; the median of “E-score (-0.5 to 0.5)” is about -0.054, and the highest 2% start at about 0.35. This is one part of the list.

Each sequence was assayed against T1, Stb5 (UniProt P38699) (assay: PBM E-score (8-mer binding enrichment) (E-score (-0.5 to 0.5)); higher = stronger / more preferred TF binding; most listed sequences are background and not binding sites). Settings: protein concentration: 200 nM; construct: GST-full length.
T1 sequence: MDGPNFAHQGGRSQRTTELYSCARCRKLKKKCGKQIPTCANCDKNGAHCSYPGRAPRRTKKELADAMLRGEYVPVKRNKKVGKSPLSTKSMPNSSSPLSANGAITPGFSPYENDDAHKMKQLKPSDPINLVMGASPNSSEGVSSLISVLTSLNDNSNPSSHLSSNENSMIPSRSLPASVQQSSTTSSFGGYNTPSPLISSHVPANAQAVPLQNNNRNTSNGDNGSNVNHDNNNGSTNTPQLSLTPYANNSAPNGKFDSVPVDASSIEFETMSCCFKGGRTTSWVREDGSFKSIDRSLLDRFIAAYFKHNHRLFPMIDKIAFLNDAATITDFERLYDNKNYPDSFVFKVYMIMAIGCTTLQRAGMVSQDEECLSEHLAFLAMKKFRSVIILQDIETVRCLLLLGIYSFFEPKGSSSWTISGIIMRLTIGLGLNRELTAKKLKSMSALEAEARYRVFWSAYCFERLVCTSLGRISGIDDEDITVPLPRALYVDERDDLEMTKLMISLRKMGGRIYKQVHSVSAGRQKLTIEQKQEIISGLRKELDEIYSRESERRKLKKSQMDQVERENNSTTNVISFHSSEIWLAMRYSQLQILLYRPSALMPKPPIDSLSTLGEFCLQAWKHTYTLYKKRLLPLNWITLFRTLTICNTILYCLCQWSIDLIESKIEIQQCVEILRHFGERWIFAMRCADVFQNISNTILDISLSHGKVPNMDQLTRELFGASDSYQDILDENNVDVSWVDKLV
How it was run: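 For each ungapped eight-base word taken together with its reverse complement, the Universal PBM Analysis Suite assigned an E-score. Binding data came from GST-tagged yeast transcription factors, applied at about 100-200 nM, on universal all-10-mer Agilent arrays made double-stranded by primer extension. Fluorescent anti-GST marked bound protein, and scans were normalised with masliner.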
For ACCATGCA, the “PBM E-score” value was -0.139. In the case of GATTCGCA, the “PBM E-score” value was 0.0603. For ACCGCCAT, the “PBM E-score” value was 0.265. With CTTCGCCA the “PBM E-score” value was 0.0018. With AAGCCCAC the “PBM E-score” value was 0.0467. CTAATTCC was tested, and the “PBM E-score” value was 0.15. In the case of AGTCACGG, the “PBM E-score” value was 0.23. In the case of AGGCGCAT, the “PBM E-score” value was -0.0573. CACACGCC was tested, and the “PBM E-score” value was 0.155. For CGCTTTGC, the “PBM E-score” value was 0.172. In the case of GTCTTCTA, the “PBM E-score” value was -0.225. For CAAGCGCG, the “PBM E-score” value was 0.0271. For GGCTAATA, the “PBM E-score” value was 0.126. AGAAAGGG was tested, and the “PBM E-score” value was -0.205. For CGAGATCC, the “PBM E-score” value was -0.0962. In the case of ACAAGCTG, the “PBM E-score” value was -0.232. AGGAGGTG was tested, and the “PBM E-score” value was -0.197. For ATCGAGAA, the “PBM E-score” value was -0.335. For AAGCAGTA, the “PBM E-score” value was -0.266. CACCTAAA was tested, and the “PBM E-score” value was 0.0247. GCGTAGCC was tested, and the “PBM E-score” value was -0.19. In the case of CATGGTCA, the “PBM E-score” value was -0.206. CATATACA was tested, and the “PBM E-score” value was -0.0281. In the case of GGATGCCC, the “PBM E-score” value was -0.0098. In the case of ACCGAGCT, the “PBM E-score” value was 0.0882. In the case of CTAGGTAC, the “PBM E-score” value was -0.113. In the case of CATCCCAG, the “PBM E-score” value was -0.212. With ATGGTCAA the “PBM E-score” value was -0.0926. CATAGTGA was tested, and the “PBM E-score” value was -0.2. With CGCAGACA the “PBM E-score” value was -0.0673. With ATATTCCA the “PBM E-score” value was -0.0602. CTGCACCC was tested, and the “PBM E-score” value was 0.0184. With CTATTTTC the “PBM E-score” value was 0.0555. CGAGGAAA was tested, and the “PBM E-score” value was -0.238. ATGACGGC was tested, and the “PBM E-score” value was 0.24. For GCGCTGAC, the “PBM E-score” value was 0.0553. For GCTGGCCC, the “PBM E-score” value was -0.184. In the case of CTTTACAC, the “PBM E-score” value was 0.0697. With CAGCAGAG the “PBM E-score” value was -0.278. In the case of AAGCGTCC, the “PBM E-score” value was -0.285. For AGATATGC, the “PBM E-score” value was -0.0711. In the case of AAAAGTCA, the “PBM E-score” value was -0.0354. CGCTAAAG was tested, and the “PBM E-score” value was -0.021. With AAGGTACA the “PBM E-score” value was -0.355. In the case of ACTTGTGC, the “PBM E-score” value was 0.072. In the case of CAAAGAGA, the “PBM E-score” value was -0.152. In the case of ATAACTCC, the “PBM E-score” value was 0.429. With AAATCCTC the “PBM E-score” value was 0.0211. For TCGTTGAA, the “PBM E-score” value was -0.126. ACAAGGAT was tested, and the “PBM E-score” value was -0.294. With GAATAATA the “PBM E-score” value was 0.214. For GACGGTTA, the “PBM E-score” value was 0.107. For CTGGTGAA, the “PBM E-score” value was -0.271. With ACGGAACC the “PBM E-score” value was 0.132. In the case of CTACGTAC, the “PBM E-score” value was -0.115. For CATTATCG, the “PBM E-score” value was 0.0609. With ATCGGTCA the “PBM E-score” value was 0.208. For GGGAATAA, the “PBM E-score” value was 0.373. ATAAAAAG was tested, and the “PBM E-score” value was -0.00413. AAAGCGAC was tested, and the “PBM E-score” value was 0.0256. CCTATACA was tested, and the “PBM E-score” value was -0.193. For CACGGTGC, the “PBM E-score” value was 0.306. With CCATCGCC the “PBM E-score” value was 0.0103. For ACGGGGGA, the “PBM E-score” value was 0.0722. ACGACCCG was tested, and the “PBM E-score” value was -0.00346. GGATTTGA was tested, and the “PBM E-score” value was 0.0861. For CGTCCCCA, the “PBM E-score” value was 0.0206. With CCGCTATC the “PBM E-score” value was 0.341. With CTCTGCAC the “PBM E-score” value was -0.0404. For AATACGCC, the “PBM E-score” value was 0.238. In the case of AAAGCACT, the “PBM E-score” value was -0.00142. With GTCACCTA the “PBM E-score” value was -0.102. CTGTATAC was tested, and the “PBM E-score” value was -0.109. GTCAGTCA was tested, and the “PBM E-score” value was -0.217. With ACGATTGC the “PBM E-score” value was -0.119. In the case of ACTTAATC, the “PBM E-score” value was -0.166. For GGCATCAC, the “PBM E-score” value was 0.203. For GGTATCAC, the “PBM E-score” value was 0.183. For ACAGATAC, the “PBM E-score” value was 0.0761. For GTACAGCA, the “PBM E-score” value was -0.0537. In the case of ATACACAT, the “PBM E-score” value was -0.198. In the case of AGCCTAGG, the “PBM E-score” value was -0.222. With ACCTTAAA the “PBM E-score” value was 0.0476. In the case of AATTCGGT, the “PBM E-score” value was 0.153. In the case of AGGTTTTC, the “PBM E-score” value was -0.258. For CTTAGTAC, the “PBM E-score” value was 0.00597. AGAGGTGA was tested, and the “PBM E-score” value was -0.139. ATCCAGAC was tested, and the “PBM E-score” value was 0.0203. GCACCAAA was tested, and the “PBM E-score” value was -0.168. For GAAAACAC, the “PBM E-score” value was 0.195. With AGTCAACG the “PBM E-score” value was -0.144. In the case of AGTTAATC, the “PBM E-score” value was 0.101. With ATGGAACG the “PBM E-score” value was -0.0862. With AGTTGCGG the “PBM E-score” value was 0.182. ACAGTTAA was tested, and the “PBM E-score” value was -0.0537. In the case of ACGCCCTA, the “PBM E-score” value was 0.0435. In the case of AGCCGTGA, the “PBM E-score” value was 0.0842. For GTTAATCA, the “PBM E-score” value was -0.00602. In the case of ACGGGAGG, the “PBM E-score” value was 0.0128. With CAACGAAA the “PBM E-score” value was -0.126. For ATTAGGAC, the “PBM E-score” value was -0.0207. In the case of TCTTACAA, the “PBM E-score” value was -0.14. GTAAACTA was tested, and the “PBM E-score” value was -0.0246. With GCCGCTCA the “PBM E-score” value was 0.303. GCACCAGC was tested, and the “PBM E-score” value was -0.0723. With CGGCCCTA the “PBM E-score” value was 0.426. CCAAGTTC was tested, and the “PBM E-score” value was 0.0535. For GTGTTCCA, the “PBM E-score” value was -0.104. In the case of AATGTGGC, the “PBM E-score” value was -0.0962. In the case of AAGATACT, the “PBM E-score” value was -0.0155. For GCGAGCGA, the “PBM E-score” value was -0.139. In the case of ACCCTCAG, the “PBM E-score” value was -0.166. For ATCGCATG, the “PBM E-score” value was -0.0961. With ATAATGTG the “PBM E-score” value was -0.143. With CGTATAAG the “PBM E-score” value was 0.109. With ATCTGACG the “PBM E-score” value was -0.0873. AATAGATT was tested, and the “PBM E-score” value was -0.0389. CACCCTAG was tested, and the “PBM E-score” value was -0.151. CGATTAAG was tested, and the “PBM E-score” value was 0.068. ACGACAGC was tested, and the “PBM E-score” value was -0.181. AGCCTACC was tested, and the “PBM E-score” value was -0.178. AATATACG was tested, and the “PBM E-score” value was 0.00055. In the case of GCAATAAA, the “PBM E-score” value was 0.152. For CGTGTCGA, the “PBM E-score” value was -0.285. With CATAACTC the “PBM E-score” value was 0.115. CAGGCAAC was tested, and the “PBM E-score” value was -0.39. AAGTCTAC was tested, and the “PBM E-score” value was -0.177. With CCGCACTC the “PBM E-score” value was 0.148. In the case of ATAAATTC, the “PBM E-score” value was 0.13. For AACAAGGT, the “PBM E-score” value was -0.0752. TACTCCCA was tested, and the “PBM E-score” value was 0.0265. CTGGTCAC was tested, and the “PBM E-score” value was -0.233. For CGCATATC, the “PBM E-score” value was 0.0209. With CAGGCTAC the “PBM E-score” value was -0.0641. With CATGATCG the “PBM E-score” value was 0.035. For CCACACCC, the “PBM E-score” value was -0.0921. In the case of GCCCCAGA, the “PBM E-score” value was -0.0372. AGGAGTTG was tested, and the “PBM E-score” value was -0.154. With CAAAGCCC the “PBM E-score” value was 0.285. With ACGTGGAC the “PBM E-score” value was 0.0889. With CGGCTAGA the “PBM E-score” value was -0.0327. For ACCGGACA, the “PBM E-score” value was 0.321. With AAGCATAT the “PBM E-score” value was -0.0271. With AACCTTCA the “PBM E-score” value was -0.272. For AACACTTC, the “PBM E-score” value was -0.246. For CTATGGGC, the “PBM E-score” value was -0.237. In the case of ATCGGCAC, the “PBM E-score” value was 0.339. For ACCACCCT, the “PBM E-score” value was -0.168. For GCCCGGGA, the “PBM E-score” value was 0.262. For CCCCGCGC, the “PBM E-score” value was 0.311. With CACGTATG the “PBM E-score” value was -0.0394. CGGAATCA was tested, and the “PBM E-score” value was 0.267. AAATGGAG was tested, and the “PBM E-score” value was 0.048. For GGCCTTCA, the “PBM E-score” value was 0.103. ACACGGGA was tested, and the “PBM E-score” value was 0.0484. With CAATTTGG the “PBM E-score” value was -0.102. For AACCGACA, the “PBM E-score” value was 0.181. In the case of CGTACCGC, the “PBM E-score” value was 0.302. With CTCCCACA the “PBM E-score” value was -0.0559. In the case of GCTTGTCA, the “PBM E-score” value was 0.0846. In the case of AATGGACA, the “PBM E-score” value was -0.222. For GCGGAGAA, the “PBM E-score” value was 0.259. In the case of TGTTATAA, the “PBM E-score” value was 0.146. AGCTAGTG was tested, and the “PBM E-score” value was -0.326. In the case of GTTAAGAA, the “PBM E-score” value was 0.0684. With ATTCACGG the “PBM E-score” value was 0.216. In the case of CCTCGTGA, the “PBM E-score” value was -0.168. For CCCTGTAC, the “PBM E-score” value was -0.0542. In the case of AACCCAAT, the “PBM E-score” value was -0.235. For CAACCCAC, the “PBM E-score” value was -0.11. For AGTTCACG, the “PBM E-score” value was -0.254. In the case of CCTGGCGC, the “PBM E-score” value was 0.0831.
